Each structure is given as a SMILES string. Where two headings read alike, the source gives them in different places. Some results are limits rather than exact numbers.

This note sets out measurements from PMC12434519 (ACS Medicinal Chemistry Letters, 2025).

This experiment has as its target SARS-CoV-2 NSP14 (Severe acute respiratory syndrome coronavirus 2, UniProt P0DTD1). In words: biochemical.
Where [1] appears, read: TDI-015051 series, retrospective VS set, biochemical MTase assay, read-out: Merged IC50.
Where [2] appears, read: TDI-015051 series, retrospective VS set, biochemical MTase assay, read-out: Merged pIC50 (converted).
Where [3] appears, read: LUM % inhibition, read-out: SARS-CoV-2 NSP14 inhibition: IC50.
Where [4] appears, read: LUM % inhibition, read-out: SARS-CoV-2 NSP14 inhibition: Maximum response.
[5] abbreviates: fit of concentration-response curve.
[6] abbreviates: Hill slope of the concentration-response fit.
Setting [7] is: maximum response, LUM % inhibition, read-out: SARS-CoV-2 NSP14 inhibition: Maximum response (%).
Setting [8] is: read-out: SARS-CoV-2 NSP14 inhibition: IC50.

Take `Cc1c(S(=N)(=O)c2ccccc2)cc(C(=O)NCc2cccc3cnn(C)c23)n1C` (stereo not shown) [TDI-015861, Cc1c(S(=N)(=O)c2ccccc2)cc(C(=O)NCc2cccc3cnn(C)c23)n1C]: the IC50 is, setting by setting: under setting [1], 0.176 µM; under setting [2], 0.174 µM.
Compound `Cc1c(S(=O)(=O)N2Cc3c[nH]nc3[C@H](CO)C2)cc(C(=O)NCc2c(F)ccc3cnn(C)c23)n1C` [TDI-015496, Cc1c(S(=O)(=O)N2Cc3c[nH]nc3[C@H](CO)C2)cc(C(=O)NCc2c(F)ccc3cnn(C)c23)n1C] had an IC50 (Merged pIC50, TDI-015051 series, retrospective VS set, biochemical MTase assay) of 0.00309 µM.
Turning to `Cc1ccc(F)c(C(=O)NCCc2ccc(CNC(=O)C3CCC(O)CC3)cc2)c1F` (stereo not shown) [RU-0834133], under setting [3], the IC50 is over 125 µM. The Emax under setting [4] was 20.2%. The “SARS-CoV-2 NSP14 inhibition: Hill slope” value under setting [5] stood at 1.19.
The corresponding values for `COc1ccnc(C(=O)NCC2CCCC3CN(C(=O)Cc4ccc(O)c(C)c4)CC23)c1C` (stereo not shown) [RU-0834121] are over 125 µM, 17.4% and 7.03.
For `Cc1ccc2cc(C(=O)N3CC4CCC4(CCNC(=O)c4n[nH]c5cccnc45)C3)cn2c1` (stereo not shown) [RU-0834098] the same measures were 25.6 µM, 80.4% and 2.5.
Regarding `O=C(N[C@@H]1CCOc2ccccc21)c1cccc(S(=O)(=O)Nc2ccccc2F)c1` [RU-0833676], the “SARS-CoV-2 NSP14 inhibition: Hill slope” value under setting [6] worked out at 0.925. Under setting [7], the Emax came out at 3.31%. Further, under setting [8], the IC50 is over 62.5 µM.
As to `Cc1cc(CNC(=O)c2cn(CCNC(=O)c3ccc(O)cc3F)nn2)ccc1F` [RU-0834128], the IC50 under setting [3] was over 125 µM. Also, under setting [4], the Emax amounted to 37.8%. Moreover, under setting [5], the “SARS-CoV-2 NSP14 inhibition: Hill slope” value stood at 0.518.
For the compound `C[C@@H](NC(=O)CNc1cccc(C(=O)N(C)C)c1)c1ccc(Cl)cc1Cl` [RU-0833646], the “SARS-CoV-2 NSP14 inhibition: Hill slope” value under setting [6] worked out at 1.3. Further, the Emax under setting [7] was determined as 1.23%. In addition, the IC50 under setting [8] was over 62.5 µM.
`O=C(N[C@@H]1CC[C@H](CNC(=O)c2n[nH]c3ncccc23)C1)c1ccc(O)cc1F.O=C(O)C(F)(F)F` [RU-0834158]: the IC50 under setting [3] was over 125 µM. The Emax under setting [4] came to 18.2%. Besides, under setting [5], the “SARS-CoV-2 NSP14 inhibition: Hill slope” value is reported as 1.24.
For `C=C1Nc2ncnn2C(C)=C1CCC(=O)Nc1cccc(C(=O)Nc2cccc(C(F)(F)F)c2)c1` [RU-0833910] the same measures were over 125 µM, 34.2% and 0.584.
Turning to `CN(c1cccc(Cl)c1)S(=O)(=O)c1cccc(C(=O)NCc2ccncc2)c1` [RU-0833872], the IC50 under setting [3] is over 125 µM. In addition, the Emax under setting [4] amounted to 15.3%. Besides, the “SARS-CoV-2 NSP14 inhibition: Hill slope” value under setting [5] came out at 38.1.
With `Cc1cc(C(=O)NCC2(C)CCC(NC(=O)c3ncc4ccccn34)C2)cc(C)c1O` (stereo not shown) [RU-0834101], the IC50 under setting [3] was determined as 12.3 µM. Moreover, the Emax under setting [4] was found to be 29.7%. Besides, the “SARS-CoV-2 NSP14 inhibition: Hill slope” value under setting [5] was 1.12.
With `COc1ccccc1CNC(=O)c1cc(S(=O)(=O)N2CCc3ccccc3C2)c(C)n1C` [TDI-013289, COc1ccccc1CNC(=O)c1cc(S(=O)(=O)N2CCc3ccccc3C2)c(C)n1C], under setting [1], the IC50 worked out at 0.0141 µM.
Turning to `CN(c1cccc(Cl)c1)S(=O)(=O)c1cccc(C(=O)NC2CCCC2)c1` [RU-0833902], under setting [3], the IC50 was over 125 µM. The Emax under setting [4] came out at 8.12%. Besides, the “SARS-CoV-2 NSP14 inhibition: Hill slope” value under setting [5] is given as 244.
The corresponding values for `Cc1cccc(S(=O)(=O)c2ccc(=O)n(CC(=O)NCc3ccccc3Cl)n2)c1` [RU-0833884] are over 125 µM, 15.1% and 333.
Turning to `O=C(Cc1c(F)cccc1F)Nc1cccc(CNC(=O)c2ccc3[nH]ncc3c2)c1` [RU-0834086], the IC50 under setting [3] was over 125 µM. Further, the Emax under setting [4] stood at 37.3%. In addition, the “SARS-CoV-2 NSP14 inhibition: Hill slope” value under setting [5] was determined as 0.332.
For `O=C(CCn1nc2ccccn2c1=O)NCCc1c(F)cccc1F` [RU-0833875] the same measures were over 125 µM, 14.9% and 17.4.
For `Cc1cc(F)ccc1C(=O)NCc1ccc(CCNC(=O)c2cc(O)cc(F)c2)cc1` [RU-0834104] the same measures were 11.6 µM, 31.2% and 0.959.
Take `Cc1c([S@](=N)(=O)c2cc(F)c3[nH]ncc3c2)cc(C(=O)NCc2c(F)ccc3cnn(C4CC4)c23)n1C` [TDI-016489, Cc1c([S@](=N)(=O)c2cc(F)c3[nH]ncc3c2)cc(C(=O)NCc2c(F)ccc3cnn(C4CC4)c23)n1C]: the IC50 (Merged IC50 (µM), TDI-015051 series, retrospective VS set, biochemical MTase assay) amounted to 0.000121 µM.
Turning to `Cc1ccc(F)cc1C(=O)NCC(C)C1(O)CCN(C(=O)c2cc(C)c3[nH]ncc3c2)C1` (stereo not shown) [RU-0834172], the IC50 under setting [3] is over 125 µM. Besides, the Emax under setting [4] was 11.6%. Also, the “SARS-CoV-2 NSP14 inhibition: Hill slope” value under setting [5] came to 18.1.
Take `CC(CNC(=O)CN(C)S(=O)(=O)c1ccc(F)cc1)c1nc2ccccc2n1C(F)F` (stereo not shown) [RU-0833909]: the IC50 under setting [3] was over 125 µM. In addition, the Emax under setting [4] stood at 12.9%. For the same compound, the “SARS-CoV-2 NSP14 inhibition: Hill slope” value under setting [5] is given as 0.185.
`Cc1ccc(C(=O)NCc2nnc3cccnn23)cc1NC(=O)Cc1ccncc1` [RU-0833637]: the “SARS-CoV-2 NSP14 inhibition: Hill slope” value under setting [6] is 0.946. The Emax under setting [7] was determined as 7.34%. Moreover, the IC50 under setting [8] was over 62.5 µM.
The corresponding values for `NC(=O)[C@@H](CNC(=O)NCc1ccc(Cl)cc1Cl)Cc1ccc(F)cc1` [RU-0833628] are -0.981, 0.476% and over 62.5 µM.
For `Cc1c(CC(=O)NCc2cccc(CNC(=O)c3ccc4cncn4c3C)c2)cnn1C` [RU-0834118], the IC50 under setting [3] is over 125 µM. In addition, the Emax under setting [4] is 16.4%. The “SARS-CoV-2 NSP14 inhibition: Hill slope” value under setting [5] was found to be 2.44.
`Cc1sc(C(=O)NCc2cccc3cnn(C)c23)cc1S(=O)(=O)N1CCn2nccc2C1` [TDI-014534, Cc1sc(C(=O)NCc2cccc3cnn(C)c23)cc1S(=O)(=O)N1CCn2nccc2C1]: the IC50 under setting [2] is 0.0324 µM.
Take `O=C(NC[C@H]1C[C@@H]1CNC(=O)c1cccc2cc[nH]c12)c1ccc2cn[nH]c2c1` [RU-0833671]: under setting [6], the “SARS-CoV-2 NSP14 inhibition: Hill slope” value was 0.653. Further, the Emax under setting [7] worked out at 18.1%. For the same compound, the IC50 under setting [8] is over 62.5 µM.
With `Cc1cc(C(=O)NC2CC(O)(CNC(=O)Cc3c(C)cccc3F)C2)cc(C)c1O` (stereo not shown) [RU-0834139], under setting [3], the IC50 is over 125 µM. Further, under setting [4], the Emax turned out to be 20.6%. The “SARS-CoV-2 NSP14 inhibition: Hill slope” value under setting [5] amounted to 1.17.
Take `O=C(NC1CCCc2ccccc21)C1CCCN(S(=O)(=O)Cc2ccccc2)C1` (stereo not shown) [RU-0833890]: the IC50 under setting [3] is over 125 µM. The Emax under setting [4] turned out to be 9.7%. Moreover, under setting [5], the “SARS-CoV-2 NSP14 inhibition: Hill slope” value turned out to be 43.9.
`O=C(CNc1ccc(Br)cc1)Nc1cccc(S(=O)(=O)N2CCCCCC2)c1` [RU-0833935]: the IC50 under setting [3] was over 125 µM. Under setting [4], the Emax turned out to be 5.39%. Further, the “SARS-CoV-2 NSP14 inhibition: Hill slope” value under setting [5] was found to be 19.
Regarding `C[C@@H](NC(=O)c1cccc(NC(=O)c2cccnc2)c1)c1ccc(C(F)(F)F)cc1` [RU-0833653], the “SARS-CoV-2 NSP14 inhibition: Hill slope” value under setting [6] turned out to be 0.711. Also, under setting [7], the Emax turned out to be 38.2%. The IC50 under setting [8] was over 62.5 µM.
With `O=C(NCCc1ccccc1Cl)c1cc2n(n1)CCCN(Cc1cccc(F)c1)C2=O` [RU-0833878], under setting [3], the IC50 is over 125 µM. Besides, under setting [4], the Emax amounted to 12.5%. Also, the “SARS-CoV-2 NSP14 inhibition: Hill slope” value under setting [5] amounted to 0.0847.
The corresponding values for `O=C(NC1CCSc2ccccc21)C1CCN(C(=O)c2ccc(F)cc2F)CC1` (stereo not shown) [RU-0833936] are over 125 µM, 9.41% and 2.18.
Take `CCN(CC)C(=O)c1cccc(NC(=O)CCCn2c(=O)oc3ccccc32)c1` [RU-0833641]: the “SARS-CoV-2 NSP14 inhibition: Hill slope” value under setting [6] worked out at 107. For the same compound, the Emax under setting [7] is 1.02%. Also, the IC50 under setting [8] is over 62.5 µM.
Consider `O=C(NCCc1nnc2ccccn12)c1cccc(CS(=O)(=O)c2ccccc2)c1` [RU-0833926], for which, under setting [3], the IC50 was over 125 µM. Further, the Emax under setting [4] came to 14.2%. The “SARS-CoV-2 NSP14 inhibition: Hill slope” value under setting [5] turned out to be 16.3.
As for `CNC(=O)c1cccc(NC(=O)CCCn2c(=O)oc3ccccc32)c1` [RU-0833645], the “SARS-CoV-2 NSP14 inhibition: Hill slope” value under setting [6] stood at 0.635. Also, the Emax under setting [7] came to 5.94%. The IC50 under setting [8] is over 62.5 µM.
In the case of `O=C(Nc1ccnn1Cc1ccc(Cl)cc1Cl)[C@H]1CC(=O)N(c2ccc3c(c2)OCCO3)C1` [RU-0833632], the “SARS-CoV-2 NSP14 inhibition: Hill slope” value under setting [6] is reported as -2.2. Further, the Emax under setting [7] was 0.32%. For the same compound, the IC50 under setting [8] is over 62.5 µM.
As to `O=C(N[C@H]1CN(C(=O)c2ccc3[nH]ncc3c2)C2(CCC2)C1)c1cc(F)c2n[nH]nc2c1` [RU-0833678], the “SARS-CoV-2 NSP14 inhibition: Hill slope” value under setting [6] came to 0.884. Further, the Emax under setting [7] worked out at 11.3%. Also, the IC50 under setting [8] is over 62.5 µM.
Regarding `Cc1c(C(=O)NCc2c(F)ccc3occc23)cn(S(=O)(=O)c2ccc3[nH]ncc3c2)c1C` [TDI-015820, Cc1c(C(=O)NCc2c(F)ccc3occc23)cn(S(=O)(=O)c2ccc3[nH]ncc3c2)c1C], the IC50 under setting [1] stood at 0.0307 µM.
On to `Cn1ccn2ncc(C(=O)NCc3ccc(CCNC(=O)c4ccc5cncn5c4)cc3)c12` [RU-0834109], for which, under setting [3], the IC50 came out at 16.7 µM. Besides, the Emax under setting [4] came out at 52.2%. The “SARS-CoV-2 NSP14 inhibition: Hill slope” value under setting [5] is 1.25.
As for `Cc1cc(C(=O)NCc2cccc(CNC(=O)C34CCC(CO)(CC3)C4)c2)cc2cn[nH]c12` [RU-0834169], under setting [3], the IC50 is over 125 µM. For the same compound, the Emax under setting [4] worked out at 15.2%. Besides, the “SARS-CoV-2 NSP14 inhibition: Hill slope” value under setting [5] is given as 2.59.
The corresponding values for `Cc1cc(C(=O)N[C@@H]2CCC[C@H](CNC(=O)c3cnn4c3CCCC4)C2)cc(C)c1O` [RU-0834159] are 16.5 µM, 61.1% and 0.966.
